Measurements as given in article PMC11995724, “Antibiotic target discovery by integrated phenotypic and activity-based profiling of electrophilic fragments” (Cell chemical biology, 2025).
Hit rate of the full screen: of about 3,200 compounds, about 110 (3.4%) showed an effect of 50% or more. Some of the results follow.

What follows are compounds tested on T1, V. cholerae SAD30. Conditions: relative growth, OD600, LB; 25 µM; inhibitor.
T1 construct: SAD30
Set-up: species or system S. aureus MSSA476 (TSB) or V. cholerae SAD30 (LB); 384-well bacterial growth screen at 25 uM, OD600 relative to DMSO control

Row | SMILES | % of control remaining [%]
1 | CC(=O)c1ccc(NC(=O)CCl)cc1 [4-G07, N-(4-acetylphenyl)-2-chloroacetamide] | 103.515
2 | Cn1cccc1C(=O)CCl [10-B04, 2-chloro-1-(1-methyl-1H-pyrrol-2-yl)ethan-1-one] | 98.1882
3 | C=CC(=O)NCCNS(=O)(=O)c1cc(C)ccc1F [2-L11, N-[2-(2-fluoro-5-methylbenzenesulfonamido)ethyl]prop-2-enamide] | 86.1816
4 | N#CC(=Cc1cn2cc(Cl)ccc2n1)C(=O)NC1CCCC1 [9-P15, 3-{6-chloroimidazo[1,2-a]pyridin-2-yl}-2-cyano-N-cyclopentylprop-2-enamide] | 87.7634
5 | C=CC(=O)N(CC)CC(=O)N1CCCC(c2nccn2C)C1 (stereo not drawn) [3-F03, N-ethyl-N-{2-[3-(1-methyl-1H-imidazol-2-yl)piperidin-1-yl]-2-oxoethyl}prop-2-enamide] | 109.557
6 | C=CC(=O)Nc1ccccc1Cl [1-O10, N-(2-chlorophenyl)prop-2-enamide] | 91.1809
7 | C=CC(=O)NC1CCC(OCc2cc(C)no2)CC1 (stereo not drawn) [1-M08, N-{4-[(3-methyl-1,2-oxazol-5-yl)methoxy]cyclohexyl}prop-2-enamide] | 88.3408
8 | NS(=O)(=O)c1cccc2cc(NC(=O)CCl)ccc12 [5-K16, 2-chloro-N-(5-sulfamoylnaphthalen-2-yl)acetamide] | 109.11
9 | CC(Cl)C(=O)NC1CCN(S(C)(=O)=O)C1 (stereo not drawn) [7-I15, 2-chloro-N-(1-methanesulfonylpyrrolidin-3-yl)propanamide] | 82.6037
10 | C=CC(=O)N1CCC(c2cnn(C)c2)CC1 [2-I10, 1-[4-(1-methyl-1H-pyrazol-4-yl)piperidin-1-yl]prop-2-en-1-one] | 86.9536
11 | CC(C)NC(=O)C(C#N)=Cc1ccc(C#N)cc1 [9-M11, 2-cyano-3-(4-cyanophenyl)-N-(propan-2-yl)prop-2-enamide] | 88.9871
12 | Cc1ccc(C=C(C#N)C(=O)NCc2ccco2)o1 [8-P19, 2-cyano-N-[(furan-2-yl)methyl]-3-(5-methylfuran-2-yl)prop-2-enamide] | 80.6934
13 | CC(Cl)C(=O)N1CC=C(C(F)(F)F)CC1 (stereo not drawn) [5-J19, 2-chloro-1-[4-(trifluoromethyl)-1,2,3,6-tetrahydropyridin-1-yl]propan-1-one] | 96.8372
14 | C=CC(=O)N1CCC(C(=O)N2CCN(CC(C)C)C(=O)C2C)CC1 (stereo not drawn) [2-B08, 3-methyl-1-(2-methylpropyl)-4-[1-(prop-2-enoyl)piperidine-4-carbonyl]piperazin-2-one] | 91.5854
15 | CCCn1c(N)c(C(=O)CCl)c(=O)[nH]c1=O [10-L10, 6-amino-5-(2-chloroacetyl)-1-propyl-1,2,3,4-tetrahydropyrimidine-2,4-dione] | 102.708
16 | C=CC(=O)N1CCC(C(=O)N[C@@H]2CC[C@H](O)C2)(c2ccccc2)CC1 (racemic) [2-H16, rac-N-[(1R,3S)-3-hydroxycyclopentyl]-4-phenyl-1-(prop-2-enoyl)piperidine-4-carboxamide] | 89.4239
17 | C=CC(=O)NCc1ccc(C(=O)N2CCC(c3nc(C)no3)C2)cc1 (stereo not drawn) [2-P08, N-({4-[3-(3-methyl-1,2,4-oxadiazol-5-yl)pyrrolidine-1-carbonyl]phenyl}methyl)prop-2-enamide] | 97.9157
18 | C=CC(=O)N1CCC(c2nc(C3CC3)no2)C1 (stereo not drawn) [2-E09, 1-[3-(3-cyclopropyl-1,2,4-oxadiazol-5-yl)pyrrolidin-1-yl]prop-2-en-1-one] | 93.9014
19 | O=C(CCl)Nc1cc(S(=O)(=O)N2CCOCC2)ccc1O [6-J12, 2-chloro-N-[2-hydroxy-5-(morpholine-4-sulfonyl)phenyl]acetamide] | 86.302
20 | O=C(CCl)NCc1cnn(-c2ccccc2)n1 [6-J03, 2-chloro-N-[(2-phenyl-2H-1,2,3-triazol-4-yl)methyl]acetamide] | 103.289
21 | CC1CCCCC1NC(=O)CCl (stereo not drawn) [6-C10, 2-chloro-N-(2-methylcyclohexyl)acetamide] | 90.7005
22 | N#CC(=Cc1ccccc1)C(=O)NC1CC1 [9-M15, 2-cyano-N-cyclopropyl-3-phenylprop-2-enamide] | 90.6186
23 | CC1CN(C(=O)C(C)Cl)CC(C)O1 (stereo not drawn) [5-F04, 2-chloro-1-(2,6-dimethylmorpholin-4-yl)propan-1-one] | 102.217

Row | SMILES | % of control remaining [%]
24 | CC(Cl)C(=O)N1CC(Cc2cccs2)C1 (stereo not drawn) [7-I04, 2-chloro-1-{3-[(thiophen-2-yl)methyl]azetidin-1-yl}propan-1-one] | 84.7183
25 | Cc1ccc(C=C(C#N)C(=O)Nc2ccccc2C(F)(F)F)cc1 [8-E16, 2-cyano-3-(4-methylphenyl)-N-[2-(trifluoromethyl)phenyl]prop-2-enamide] | 69.2726
26 | CC(Cl)C(=O)N1CC(C(=O)N2CCN(C)CC2)Oc2ccccc21 (stereo not drawn) [7-A20, 2-chloro-1-[2-(4-methylpiperazine-1-carbonyl)-3,4-dihydro-2H-1,4-benzoxazin-4-yl]propan-1-one] | 79.9604
27 | C=CC(=O)NC1CCC(F)(F)CC1F (stereo not drawn) [1-E11, N-(2,4,4-trifluorocyclohexyl)prop-2-enamide] | 90.4335
28 | CC(Cl)C(=O)N1CCC(c2nc3cc(F)ccc3s2)CC1 (stereo not drawn) [6-J18, 2-chloro-1-[4-(5-fluoro-1,3-benzothiazol-2-yl)piperidin-1-yl]propan-1-one] | 72.0447
29 | C=CC(=O)Nc1ccc(C(N)=O)nc1OC [1-E18, 6-methoxy-5-(prop-2-enamido)pyridine-2-carboxamide] | 89.6861
30 | CC(NC(=O)CCl)C(=O)Nc1ccc(Cl)cc1 (stereo not drawn) [5-G11, 2-(2-chloroacetamido)-N-(4-chlorophenyl)propanamide] | 99.0228
31 | Cc1nn(C)c(C)c1CN(C(=O)CCl)C1CCCCC1C (stereo not drawn) [5-A14, 2-chloro-N-(2-methylcyclohexyl)-N-[(1,3,5-trimethyl-1H-pyrazol-4-yl)methyl]acetamide] | 105.243
32 | N#CC(=Cc1c(Cl)cccc1Cl)C(=O)NCCc1ccccc1 [8-B14, 2-cyano-3-(2,6-dichlorophenyl)-N-(2-phenylethyl)prop-2-enamide] | 61.1149
33 | Cc1nn(C)c(C)c1C=C(C#N)C(=O)Nc1ccc2c(c1)OCCO2 [9-D03, 2-cyano-N-(2,3-dihydro-1,4-benzodioxin-6-yl)-3-(1,3,5-trimethyl-1H-pyrazol-4-yl)prop-2-enamide] | 104.079
34 | CC(Cl)C(=O)NCC1(n2ccnn2)CC1 (stereo not drawn) [6-B20, 2-chloro-N-{[1-(1H-1,2,3-triazol-1-yl)cyclopropyl]methyl}propanamide] | 88.7288
35 | CC(Cl)C(=O)N1CCOCC1 (stereo not drawn) [5-H09, 2-chloro-1-(morpholin-4-yl)propan-1-one] | 95.6604
36 | CC(=O)Nc1ccc(NC(=O)C(C#N)=Cc2cc(F)ccc2F)cc1 [8-C12, 2-cyano-3-(2,5-difluorophenyl)-N-(4-acetamidophenyl)prop-2-enamide] | 75.2549
37 | CC(=O)N1CCC(N(Cc2cncs2)C(=O)C(C)Cl)CC1 (stereo not drawn) [5-H21, N-(1-acetylpiperidin-4-yl)-2-chloro-N-[(1,3-thiazol-5-yl)methyl]propanamide] | 104.235
38 | C=CC(=O)N(CC)Cc1cn(C)nn1 [2-O09, N-ethyl-N-[(1-methyl-1H-1,2,3-triazol-4-yl)methyl]prop-2-enamide] | 91.5854
39 | COc1cc(Cl)ccc1CNC(=O)C(C#N)=Cc1ccco1 [9-E18, N-[(4-chloro-2-methoxyphenyl)methyl]-2-cyano-3-(furan-2-yl)prop-2-enamide] | 69.0007
40 | COc1ccccc1C1CSCCCN1C(=O)CCl (stereo not drawn) [5-O16, 2-chloro-1-[3-(2-methoxyphenyl)-1,4-thiazepan-4-yl]ethan-1-one] | 97.0054
41 | O=C(CCl)Nc1ccc(Cl)c(S(=O)(=O)N2CCCCC2)c1 [4-P14, 2-chloro-N-[4-chloro-3-(piperidine-1-sulfonyl)phenyl]acetamide] | 110.589
42 | C=CC(=O)N(C)CC(=O)N1CCCc2ccccc21 [3-D15, N-methyl-N-[2-oxo-2-(1,2,3,4-tetrahydroquinolin-1-yl)ethyl]prop-2-enamide] | 99.853
43 | COc1ccc(C=C(C#N)C(=O)Nc2ccc(C(=O)O)cc2)cc1C [9-G14, 4-[2-cyano-3-(4-methoxy-3-methylphenyl)prop-2-enamido]benzoic acid] | 90.8906
44 | C=CC(=O)NC(C)c1ccc(-n2nc(C)cc2C)c(F)c1 (stereo not drawn) [3-P17, N-{1-[4-(3,5-dimethyl-1H-pyrazol-1-yl)-3-fluorophenyl]ethyl}prop-2-enamide] | 107.616
45 | CC(Cl)C(=O)NC(c1cccs1)c1cccs1 (stereo not drawn) [6-L21, N-[bis(thiophen-2-yl)methyl]-2-chloropropanamide] | 87.6671
